# According to PubChem BioAssay AID686979 (National Center for Advancing Translational Sciences (NCATS), 2013):
# In all, about 420,000 compounds went through this assay and about 50,000 (12%) were called active. Inconclusive means that the source gave no clear call. Such entries were picked first, then a sample of the others. Calls follow the shape of the dose curve; as a rule, active = well fitted inhibition curve with a large enough effect; inconclusive = small, poorly fitted or top-dose-only effect; inactive = flat fitted curve, though single readings scatter. No potency is given beside an inconclusive call; the fits are too rough.
# Assay: qHTS for Inhibitors of human tyrosyl-DNA phosphodiesterase 1 (TDP1): qHTS in cells in presence of CPT; also: nearly all actives have a fitted effect of over 55% in size
# Conditions: chicken DT40 Tdp1-/-;hTDP1 cells + 20 nM CPT, ATP luminescence, 48 h; activity change, negative = growth inhibition: at 46.2 µM (top of the series)
# Summary of the method: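 Cell growth measured by CellTiter-Glo luminescence after a minimum 48 h, 37 C compound exposure with 20 nM CPT in Tdp1-knockout DT40 cells stably expressing hTDP1, seeded 400/well; qHTS titration format.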
# % is scaled to controls: 0 for no effect and ±100 for the full control effect; potency is read from the fitted curve at half-maximal effect; tags tell the direction and shape of the fitted curve.
Compound,Potency,"activity change, negative = growth inhibition"
COc1ccccc1/C=C/C(=O)c1cc(Br)ccc1OC(=O)c1ccco1,"inconclusive [inhibitor, single point]",
CC(=O)c1ccc(NC(=O)c2ccc(COc3ccccc3[N+](=O)[O-])o2)cc1,"inconclusive [inhibitor, single point]",
CN=Cc1nc(-c2ccccc2)oc1O,inactive,
CCc1ccccc1OCCCN1CCCC1,inactive,
CCOC(=O)C(=NCCCN(C)C)NNc1ccc(Br)cc1,"inconclusive [inhibitor, single point]",
NC(=O)c1ccc(-c2csnn2)cc1,inactive,
Cc1cc(C)nc(SCc2ccc(C(=O)N/N=C/c3cccc(O)c3O)cc2)n1,active: 5.17 µM,
COCCn1c(SCC(=O)Nc2ccc(Cl)cn2)nnc1-c1ccncc1,inactive,
COc1ccc(N2CC(C(=O)N3CCN(Cc4ccc5c(c4)OCO5)CC3)CC2=O)cc1 (stereo unspecified),inactive,
CC1CCN(c2c(NCc3ccc(C(=O)N4c5ccccc5CC4C)cc3)c(=O)c2=O)CC1 (stereo unspecified),active: 18.4 µM,
Cc1ccc(-c2ccc(C(=O)Nc3ccccc3)o2)c2ccccc12,"inconclusive [inhibitor, single point]",
COC(=O)c1ccccc1NC(=S)NC(=O)c1ccc2ccccc2c1,"inconclusive [inhibitor, single point]",
COc1ccc(NC(=O)C23CC4CC(C2)CC(c2ccc(C)cc2)(C4)C3)cc1,active: 29.1 µM,
COc1ccc(CNC(=O)Cn2ncc3c([nH]c4ccccc43)c2=O)cc1,inactive,
CCOc1ccc(N(CC(=O)NCCc2ccccc2)C(=O)CCC(=O)Nc2cc(C)ccn2)cc1,,inconclusive: -35.6% [inhibitor]
CCc1ccccc1N1C(=O)CN(Cc2cc(OC)c(OC)c(OC)c2)C1=S,"inconclusive [inhibitor, single point]",
CCS(=O)(=O)c1nc(S(=O)(=O)c2ccc(C)cc2)c(N2CCCCCC2)s1,"inconclusive [inhibitor, single point]",
Cc1cccc(CCNC(=O)CCc2c(C)nc3c4c(C)cc(C)nc4nn3c2C)c1,"inconclusive [inhibitor, single point]",
COc1ccc(CNC(=O)c2ccc3oc(C(C)C)nc3c2)cc1,inactive,
Cc1cccc(N2CCN(S(=O)(=O)c3c(C(=O)N4CCCCC4)c(C)n(C)c3C)CC2)c1C,"inconclusive [inhibitor, single point]",
Cc1ccc(-c2cc(NC=O)c3ncc(-c4cccc(C(=O)N(C)C)c4)n3c2)cc1,"inconclusive [inhibitor, single point]",
CC1=CC2=NC(=O)CC(C)(C(=O)N(CC(=O)NC3CCCC3)c3ccccc3C)N2C=C1 (stereo unspecified),"inconclusive [inhibitor, single point]",
Cc1ncc2c(c1CNC(=O)c1ccc3c(c1)OCO3)CCN(C(=O)c1cn3ccccc3n1)C2,,inactive: 16.7% [at 9.04 µM]
C[C@H]1CN([C@@H](C)CO)C(=O)CCCn2nncc2CO[C@@H]1CN(C)Cc1ccc(Oc2ccccc2)cc1,active: 23.1 µM,

Compound,Potency,"activity change, negative = growth inhibition"
CNC(=O)/C(C#N)=C/c1c(N2CCN(c3cccc(Cl)c3)CC2)nc2c(C)cccn2c1=O,"inconclusive [inhibitor, single point]",
COc1ccccc1C=Cc1ccnc2ccccc12,"inconclusive [inhibitor, single point]",
Cc1cccc(OCc2nnc(SCC(=O)N3c4ccccc4CC3C)n2C)c1C (stereo unspecified),"inconclusive [inhibitor, single point]",
CCc1ccc(CN2CCCC(C(=O)Nc3ccc(-c4cscn4)cc3)C2)o1 (stereo unspecified),"inconclusive [inhibitor, single point]",
COc1ccc(NC(=S)NC23CC4CC(CC(C4)C2)C3)cc1OC,"inconclusive [inhibitor, single point]",
C=CCn1c(SCc2c(C)noc2C)nc2cc(C(=O)O)ccc2c1=O,"inconclusive [inhibitor, single point]",
O=C(NCc1ccccc1)c1ccc(N2CCC3(CC2)CC(c2ccccc2)=NO3)c([N+](=O)[O-])c1,"inconclusive [inhibitor, single point]",
CCOCCn1c(N2CCCC2)nc2c1c(=O)n(C)c(=O)n2C,"inconclusive [inhibitor, single point]",
O=[N+]([O-])c1ccc(N2CCN(S(=O)(=O)c3ccccc3)CC2)cc1N1CCc2ccccc2C1,inactive,
COC(=O)c1ccccc1NC(=O)N1c2ccccc2CC1C (stereo unspecified),"inconclusive [inhibitor, single point]",
CCOc1ccc(C(=O)NCC(=O)NC(C)CCc2ccccc2)cc1OCC (stereo unspecified),"inconclusive [inhibitor, single point]",
COCCN=C1Sc2nc3ccc(C)cc3cc2CN1Cc1ccco1,"inconclusive [inhibitor, single point]",
COc1cccc(N(CC(=O)Nc2ccc3c(c2)OCO3)S(=O)(=O)c2ccccc2)c1,"inconclusive [inhibitor, partial curve, poor fit]",
Cc1ccc(NC(=O)c2cc(C)n(-c3cccc(C)c3)c2C)cc1,"inconclusive [inhibitor, single point]",
NC(N)=NN=C(c1ccc(F)cc1)c1ccc(C(F)(F)F)cc1,active: 2.59 µM,
Cn1c(=O)n(C)c2cc(S(=O)(=O)Nc3ccc(F)cc3)ccc21,active: 16.4 µM,
CCOc1ccc(C(=O)COC(=O)c2ccc(-n3cnnn3)cc2)cc1,inactive,
O=C(COc1ccc(Cl)cc1)N1CCN(C(=O)c2cccc(F)c2)CC1,inactive,
C#CCN(C[C@H]1[C@H](OC(=O)NCc2ccco2)[C@H](OC(=O)NCc2ccco2)C[C@H]2C(=O)N(c3ccccc3)C(=O)[C@@H]12)S(=O)(=O)c1ccc(C)cc1,inactive,
COc1ccc(CCNC(=O)COC(=O)COc2ccc(Cl)cc2)cc1OC,inactive,
CCC(C)(C)NC(=O)c1cc([N+](=O)[O-])ccc1N1CCCCC1,"inconclusive [inhibitor, single point]",
Cc1nn(-c2ccccc2)nc1CNC(=O)C(C)Cc1ccccc1 (stereo unspecified),"inconclusive [inhibitor, single point]",
O=c1oc(-c2cccc(S(=O)(=O)N3CCOCC3)c2)nc2ccccc12,"inconclusive [inhibitor, single point]",
Cc1nc(CCNC(=O)CC2C(=O)NCCN2Cc2ccccc2)nc2c1CCC2 (stereo unspecified),inactive,

Compound,Potency,"activity change, negative = growth inhibition"
O=C(NNC(=O)c1cccs1)c1ccccn1,active: 16.4 µM,
CCn1c(SCC(=O)c2[nH]c(C)c(C(C)=O)c2C)nnc1-c1ccccc1,active: 23.1 µM,
Cc1cc(C)nc(SCC(=O)Nc2sc3c(c2C#N)CCC(C)C3)n1 (stereo unspecified),active: 20.6 µM,
COc1ccc(C(=O)NC(=S)NNC(=O)c2ccc(NC(C)=O)cc2)cc1Br,"inconclusive [inhibitor, single point]",
O=C(NCc1ccc(F)cc1)c1ccc(Nc2nc3ccccc3n3nnnc23)cc1,active: 20.6 µM,
O=S(=O)(c1cnccc1N1CCN(CCO)CC1)N1CCCCC1,inactive,
CCn1nnc2cc(C(=O)Nc3cc(Cl)ccc3C)ccc21,inactive,
CC(C)N(Cc1cn(C)nc1-c1cccc(Cl)c1)CC1CCC(=O)N1 (stereo unspecified),"inconclusive [inhibitor, single point]",
COc1ccc(-c2c(-c3cc(OC)cc(OC)c3)n(C)c3ccc(-c4ccc(S(N)(=O)=O)cc4)cc23)cc1,active: 10.3 µM,
c1csc(CCNc2ncnc3sc4c(c23)CCC4)c1,active: 3.66 µM,
COc1ccc(NC(=O)c2sc3nc[nH]c(=O)c3c2C)cc1Cl,inactive,
NC(=O)c1sc2nc3c(c(-c4ccc(Cl)cc4)c2c1N)CCCC3,"inconclusive [inhibitor, single point]",
CCN(C(=N)N=C(N)N)c1ccccc1,"inconclusive [inhibitor, single point]",
COc1ccc(C(NC(=O)/C=C/c2ccco2)c2ccc(OC)cc2)cc1,"inconclusive [inhibitor, single point]",
CC1=C(C(=O)N(C)C)CC(CC(=O)NC(c2ccccc2)c2ccccc2)C(=O)N1Cc1ccc(F)cc1 (stereo unspecified),"inconclusive [inhibitor, partial curve]",
Cn1c(=O)n(-c2ccc3c(c2)OCO3)c2nc(-c3ccccc3)nc(C(N)=O)c21,inactive,
CC1C(=O)N(Cc2cn(Cc3ccco3)nn2)CCS(=O)(=O)N1Cc1ccc(-c2cccc(CO)c2)cc1 (stereo unspecified),"inconclusive [inhibitor, single point]",
C=CCN1C(=O)c2ccc(C(=O)N(CC)CC(=O)Nc3cc(Cl)ccc3C)cc2C1=O,inactive,
COc1ccc(OC)c(-c2nnc(SCC(=O)NC3CCCCC3)o2)c1,"inconclusive [inhibitor, partial curve]",
C/C(N)=C(/C#N)C(=O)COC(=O)CNS(=O)(=O)c1c(F)cccc1F,inactive,
Cc1ccc(-c2ccc(C(=O)NCc3ccccc3)o2)c2ccccc12,active: 23.1 µM,
COC(=O)C1=C(C)N(Cc2ccccc2)C(=NCc2ccc3c(c2)OCO3)N[C@H]1c1ccccc1,"inconclusive [inhibitor, single point]",
CCCCN(C(=O)c1ccccc1OCc1ccc(F)cc1)c1c(N)n(CCC)c(=O)[nH]c1=O,active: 18.4 µM,
